# Laboratory results published in publication PMC6919601, “Identification of Plasmodium dipeptidyl aminopeptidase allosteric inhibitors by high throughput screening” (PLoS ONE, 2019).
# The campaign covered roughly 110,000 compounds. About 230 (0.21%) showed an effect of 50% or more. The list shows a part of the results.
# Molecular target: DPAP1 (Plasmodium falciparum, UniProt Q8IIJ9)
# Assay: primary screen, percent inhibition; read by cleavage of a fluorogenic dipeptide substrate; higher = more effect of the substance
# Parameters: species or system P. falciparum D10 trophozoite lysates; single well
# 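Further: 30 min substrate incubation versus DMSO and 10 µM JCP410 controls.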
# Chain of DPAP1 (Q8IIJ9 whole entry, looked up): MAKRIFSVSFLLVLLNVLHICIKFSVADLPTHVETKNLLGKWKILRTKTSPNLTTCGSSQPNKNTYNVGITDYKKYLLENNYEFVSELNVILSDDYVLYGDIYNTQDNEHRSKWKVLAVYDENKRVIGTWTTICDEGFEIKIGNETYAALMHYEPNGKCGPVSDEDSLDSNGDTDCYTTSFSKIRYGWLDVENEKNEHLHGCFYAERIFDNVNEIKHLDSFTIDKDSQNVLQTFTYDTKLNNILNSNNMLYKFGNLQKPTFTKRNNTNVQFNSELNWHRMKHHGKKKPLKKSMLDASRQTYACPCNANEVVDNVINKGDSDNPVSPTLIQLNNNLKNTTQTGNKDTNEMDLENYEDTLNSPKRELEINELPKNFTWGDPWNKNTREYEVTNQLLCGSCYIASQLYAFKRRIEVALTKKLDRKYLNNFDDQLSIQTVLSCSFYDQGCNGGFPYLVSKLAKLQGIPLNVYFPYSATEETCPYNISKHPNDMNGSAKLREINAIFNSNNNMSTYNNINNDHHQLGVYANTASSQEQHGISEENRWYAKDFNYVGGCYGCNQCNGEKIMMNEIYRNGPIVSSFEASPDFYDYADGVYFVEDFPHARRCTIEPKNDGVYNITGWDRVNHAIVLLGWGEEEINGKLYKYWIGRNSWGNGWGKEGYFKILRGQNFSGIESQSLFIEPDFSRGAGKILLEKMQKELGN
row,SMILES,% Inhibition @ 10 uM [%]
1,Cn1c2ccccc2c2nn3c(SCC(=O)O)nnc3nc21,0.884
2,CCn1c2ccccc2c2cc(CN3CCN(c4ccccc4F)CC3)ccc21,5.32
3,COc1ccc(C2=NCCc3cc(OC)c(OC)cc32)cc1OC,-3.86
4,COc1ccccc1-n1c(S)nnc1CNC(=O)c1cc(Cl)ccc1Cl,-0.339
5,Cc1ccc(S(=O)(=O)N(CC(=O)NCc2ccccn2)c2cccc(Br)c2)cc1,-16.1
6,C=CCOc1ccc(C2C(C#N)=C(N)OC3=C2C(=O)CCC3)cc1 (centres unmarked),-0.99
7,Cc1nn(C)c(C)c1/C=C(/C(=O)c1ccc(Cl)cc1Cl)n1cncn1,0.00706
8,CCCCS(=O)(=O)CC(O)COc1ccc(Cl)cc1 (centres unmarked),-5.65
9,O=S(=O)(c1ccc(Cl)cc1)c1cnc2cc3c(cc2c1O)OCCO3,1.62
10,CCOc1ccc(C(=O)Nc2ccc(Br)cc2C(=O)O)cc1Cl,3.53
11,CCCCOc1ccc(S(=O)(=O)NCc2ccccc2)cc1,4.18
12,Cc1cc(C)c2oc(C(=O)N3CCN(C)CC3)cc(=O)c2c1,-5.08
13,CCN1C(=O)CCN(C(C)=O)c2ccccc21,-1.98
14,CC(C)(C)C(/C=C\c1ccc(Cl)cc1Cl)n1nnnc1C1(Nc2ccccc2)CCCCC1 (centres unmarked),0.00784
15,Cc1cccc(NC(=O)c2cccc3ccccc23)c1C,6.6
16,O=C(COc1ccc(NC(=O)c2cccs2)cc1)c1ccc(Br)cc1,0.408
17,O=S(=O)(Cc1ccccc1)N1CCC(Oc2ccc(-n3cnnn3)cc2)CC1,-4.67
18,COc1ccc(CN2C(=O)c3cccnc3C2=O)cc1S(=O)(=O)NC1CCCc2ccccc21 (centres unmarked),4.9
19,O=C(CC1Nc2ccccc2NC1=O)Nc1ccc(Br)cc1 (centres unmarked),20.2
20,C=C(C)CN(CC)Cc1[nH]cnc1C,-1.41
21,Cc1ccc(NC(=O)Nc2c(C)nn(Cc3ccccc3Cl)c2C)cc1,-0.67
22,Cc1ccc2c(CNC3CCCCCC3)c(C(=O)O)[nH]c2c1,-2.97
23,Cn1c(=O)[nH]c(=O)c2c1nc(N1CCN(Cc3ccccc3)CC1)n2CCCSc1ncccn1,-4.54
24,O=C(c1nnc(Cc2ccc(F)cc2Cl)o1)N1CCCC1,1.49
25,CC1CN(C)C(C)C/C1=N/OC(=O)c1ccc(Br)cc1 (centres unmarked),-4.27
26,Cc1ccc(NC(=O)c2ccccc2Cl)nc1,-3.43

row,SMILES,% Inhibition @ 10 uM [%]
1,OC1CCN(Cc2c(Cl)cccc2Cl)C1 (centres unmarked),4.55
2,COCCNC(=O)Cn1cc(S(=O)(=O)Cc2cccc(Cl)c2)c2ccccc21,5.15
3,Cc1ccc(NCN2C(=O)C3C4CCC(C4)C3C2=O)cc1 (centres unmarked),6.4
4,Cc1ccc(C)c(NC(=O)CSc2nc(C)cc(C)n2)c1,-4.06
5,CC1(C)OC(c2ccccc2)CC1=O (centres unmarked),1.54
6,NC(=O)C1CCN(c2nc3c(S(=O)(=O)c4ccccc4)nnn3c3ccsc23)CC1,-6.55
7,COc1cccc(NC(=O)c2ccc(C(C)(C)C)cc2)c1,-1.25
8,OC(CN1CCOCC1)c1ccc2cc[nH]c2c1 (centres unmarked),-1.08
9,COc1ccccc1NC(=O)CCCC(=O)O,-4.35
10,CCOC(=O)c1oc2c(c1C)/C(=N/O)CCC2,-2
11,Cc1c(Cl)cccc1-n1nnc(-c2nsc(NC(=O)c3ccccc3)n2)c1C,1.78
12,CC1=C(C(=O)Nc2ccccc2C)C(c2ccccc2)n2c(s/c(=C/c3cnn(C)c3)c2=O)=N1 (centres unmarked),-0.28
13,CCC(C)NC(=O)Cn1ncc2c3ccccc3n(C)c2c1=O (centres unmarked),8.86
14,CC(C)C[C@@H](C(=O)NCC#N)c1cccc(C#CCN2CCOCC2)c1,-10.1
15,c1ccc(N2CCN(Cc3ccc4c(c3)OCO4)CC2)nc1,-15.9
16,O=C(Nc1cc(Cl)cc(Cl)c1)c1cccs1,-4.91
17,COC(=O)NCC(c1cccnc1)N1CCOCC1 (centres unmarked),-9.28
18,O=C(Nc1ccccc1[N+](=O)[O-])c1cccc(S(=O)(=O)N2CCCCC2)c1,-3.52
19,Cc1cc(C)cc(NS(=O)(=O)c2ccc(NC(=O)C3CC3)cc2)c1,0.245
20,O=C1CCC(C(=O)O)(c2ccccc2)N1Cc1ccccc1 (centres unmarked),-5.28
21,O=C(Cn1cc(S(=O)(=O)Cc2cccc(F)c2)c2ccccc21)N1CCCC1,4.54
22,O=C(O)CSc1ncnc2scc(-c3ccc(Br)cc3)c12,1.62
23,COc1ccc(C2OC(C)CN(C(=O)c3ccc4c(c3)OCO4)O2)cc1OC (centres unmarked),0.343
24,Clc1ccc(Nc2n[nH]c(CSc3ccccc3)n2)cc1,3.53
25,Cc1nc2sc3c(NCC(C)C)ncnc3c2c2c1COC(C)(C)C2,-1.33
26,CCn1ncc(Br)c1C(=O)Nc1ccc(C)cc1C,-5.46

row,SMILES,% Inhibition @ 10 uM [%]
1,Cc1ccccc1CSCc1ccc(C(=O)NC2CCCCC2)o1,4.81
2,CCCN1CN(Cc2ccco2)c2nc3ccccc3n2C1,-5.2
3,O=C(CCCOc1ccc(Cl)cc1Cl)Nc1cnc(O)nc1O,-3.64
4,CN(CC(=O)NCc1cccs1)S(=O)(=O)c1ccc2[nH]c(-c3ccccc3)nc2c1,3.88
5,Cc1ccc(NC(=O)C(C)N2C(=O)c3ccccc3C2=O)c(C)c1 (centres unmarked),1.15
6,Cc1[nH]c2ccccc2c1C(Nc1ccccn1)c1ccccc1Cl (centres unmarked),-5.15
7,COc1ccc(-c2noc(CNS(=O)(=O)c3ccc(F)cc3)n2)cc1,-1.22
8,CC(C)C1CC(c2ccccc2)(C(CN)CO)CCO1 (centres unmarked),2.4
9,c1ccc(-c2nc3c4ccccc4nc(N4CCCCCC4)n3n2)cc1,0.981
10,CCOc1ccc(C2Nc3cccc4cccc(c34)N2)cc1OC,-5.06
11,N#C/C(=C\c1ccccc1Cl)C(=O)NCc1cccnc1,10.8
12,O=C(/C=C\Nc1ccc(S(=O)(=O)c2ccccc2)cc1)c1ccccc1,-1.91
13,CCOCN1C(=O)c2cccc3cccc1c23,2.22
14,Cc1cc(C)nc(SC(C(=O)O)c2ccccc2)n1 (centres unmarked),6.29
15,COc1cccc(OCCCN2CCOCC2)c1,0.815
16,Cn1c(NCCCO)nc2c(c1=O)C1(CCCCC1)Cc1ccccc1-2,5.24
17,CCOC(=O)C1=C(CSc2nc3ccccc3s2)NC(=O)NC1c1ccc(OC)cc1 (centres unmarked),-2.19
18,COc1ccc2cc3cc(C(=O)NCCN(C)C)oc3nc2c1,-1.54
19,COc1ccc(NC(=O)c2cccc(Cn3cc(Br)cn3)c2)cn1,3.94
20,C=CCSc1nc2c(c(=O)n1CC)C1(CCCC1)Cc1ccccc1-2,-1.6
21,COc1ccc(C)cc1NC(=O)C1CCN(C(=O)c2cccs2)CC1,-0.425
22,COc1ccc(Nc2cc(C)nc3ccc(OC)cc23)cc1,1.7
23,COc1cc2c(cc1OC)C1(CCCCC1)CN(CCCc1ccccc1)C2,5.48
24,Cc1nn(C(C)C(=O)N2CCC(N3CCCCC3)CC2)c(=O)c2nn(-c3ccccc3)c(C)c12 (centres unmarked),1.45
25,CC1=C(C(=O)OCc2ccccc2)C(c2ccc(C)cc2)NC(=O)N1 (centres unmarked),-4.77
26,Cc1ccsc1C1C(C#N)=C(N)OC2=C1C(=O)CCC2 (centres unmarked),-1.44

row,SMILES,% Inhibition @ 10 uM [%]
1,COc1ccccc1NC1CC2=C(CC1(C)C)C(C)(C)CCC2 (centres unmarked),2.94
2,CC(NC(=O)c1cc(S(=O)(=O)N2CCOCC2)cn1C)c1ccccc1 (centres unmarked),-6.65
3,Cc1ccc(OCC(=O)Nc2nc[nH]n2)c(Br)c1,-0.85
4,COc1ccc(-c2nc(CS(=O)CC(=O)NCCCOC(C)C)c(C)o2)cc1 (centres unmarked),-1.05
5,CCc1ccc(-n2c(SCC(=O)Nc3cc(C)[nH]n3)nc3nncc-3c2O)cc1,-3.21
6,CCn1ncc(C2=NOC(C(=O)NCc3cccnc3)C2)c1C (centres unmarked),1.7
7,O=C(CSc1nnc(CNC(=O)c2c(F)cccc2Cl)o1)NCc1ccco1,-3.39
8,COc1cc(Br)c(CCNC(=O)Cc2ccccc2)cc1OC,5.65
9,c1ccc(-c2nnc(-c3ccncc3)o2)cc1,-1.86
10,Cc1ccc2occ(CC(=O)N(Cc3ccccc3)C3CCS(=O)(=O)C3)c2c1 (centres unmarked),1
11,CCN(Cc1nc(-c2ccc(C)cc2)no1)S(=O)(=O)c1ccc(C)cc1,-0.946
12,N#CC1=C(N)Oc2[nH]nc(-c3ccccn3)c2C1c1cccc(F)c1 (centres unmarked),-0.759
13,CCC1(C)Cc2c(c(S)n(C)c(=N)c2C#N)CO1 (centres unmarked),-1.1
14,COc1ccc(C2C(C#N)=C(N)OC3=C2C(=O)CC(c2ccccc2)C3)cc1 (centres unmarked),3.54
15,COc1cc(NC(=O)COc2ccccc2C)c(OC)cc1Cl,1.39
16,Cc1cc2nc(SCCN3CCCCC3)[nH]c2cc1C,-1.99
17,CC(Nc1nc2nonc2nc1N1CCCC1)c1ccccc1 (centres unmarked),-4.93
18,CCOC(=O)N1CCC2(CC1)OC(=O)C(C)=C2C(=O)NCCN(C)C,2.11
19,COc1ccc(C=C2C(=O)NC(=O)NC2=O)c(OC)c1,2.79
20,O=C(COCc1cc(-c2ccc(F)cc2)on1)NCCC1=CCCCC1,-4.96
21,O=C(O)C1CC=CCC1C(=O)Nc1ccc(N2CCN(c3ccccc3)CC2)cc1 (centres unmarked),1.84
22,CCC(C)c1ccccc1OCC(=O)Nc1ccc(S(=O)(=O)N2CCCC2)cc1 (centres unmarked),3.57
23,Cc1ccc(Cl)cc1NC(=O)c1cccc(F)c1,3.74
24,COc1ccc(OC)c(C2=NOC(C(=O)N3C(C)CCCC3C)C2)c1 (centres unmarked),-0.644
25,CC1(C)Cc2ccccc2-c2nc3n(c(=O)c21)CCS3,2.65
26,CC(=O)N1CCC(NCCc2ccccc2F)CC1,1.57
